Holding throughout (test): glycan array binding signal (z-score within array); higher = stronger binding
Details in all cases: glycan notation: IUPAC condensed, linker removed

One assay deals with Gal(b1-4)Glc. The method in brief:
(§1)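 From the Consortium for Functional Glycomics database, 3228 arrays were curated, keeping only those whose protein sequence was available. Binding is given as a within-array Z-score averaged across arrays sharing a protein sequence and across linkers. Negative Z-scores can be read as non-binding.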

Another assay has as its target Gal(b1-4)Glc6S. Summed up:
as §1

The target in the next assay is Gal(b1-4)GlcNAc. Summed up: as §1
In assay [1] the target is Gal(b1-4)GlcNAc(a1-6)Gal(b1-4)GlcNAc. Summed up: as §1
For a further assay, the target named is Gal(b1-4)GlcNAc(b1-2)Man. The method in brief: as §1
Assay [2] addresses Gal(b1-4)GlcNAc(b1-2)Man(a1-3)Man(b1-4)GlcNAc(b1-4)GlcNAc. Summed up: as §1
Assay [3] concerns the target Gal(b1-4)GlcNAc(b1-2)Man(a1-3)[Gal(b1-4)GlcNAc(b1-2)Man(a1-6)]Man(b1-4)GlcNAc(b1-4)GlcNAc. The method in brief: as §1
The target in assay [4] is Gal(b1-4)GlcNAc(b1-2)Man(a1-3)[Gal(b1-4)GlcNAc(b1-2)Man(a1-6)]Man(b1-4)GlcNAc(b1-4)[Fuc(a1-6)]GlcNAc. Summed up: as §1
Assay [5] concerns the target Gal(b1-4)GlcNAc(b1-2)Man(a1-3)[Gal(b1-4)GlcNAc(b1-2)Man(a1-6)][Gal(b1-4)GlcNAc(b1-4)]Man(b1-4)GlcNAc(b1-4)[Fuc(a1-6)]GlcNAc. Summed up: as §1
The target in assay [6] is Gal(b1-4)GlcNAc(b1-2)Man(a1-3)[Gal(b1-4)GlcNAc(b1-2)Man(a1-6)][GlcNAc(b1-4)]Man(b1-4)GlcNAc(b1-4)[Fuc(a1-6)]GlcNAc. The method in brief:
as §1

In assay [7] the target is Gal(b1-4)GlcNAc(b1-2)Man(a1-3)[GlcNAc(b1-2)Man(a1-6)]Man(b1-4)GlcNAc(b1-4)GlcNAc. Summed up:
as §1

Assay [8] deals with Gal(b1-4)GlcNAc(b1-2)Man(a1-3)[GlcNAc(b1-4)][Gal(b1-4)GlcNAc(b1-2)Man(a1-6)]Man(b1-4)GlcNAc(b1-4)GlcNAc. The method in brief:
as §1

In assay [9] the target is Gal(b1-4)GlcNAc(b1-2)Man(a1-3)[Man(a1-6)]Man(b1-4)GlcNAc(b1-4)GlcNAc. Summed up: as §1
The target of assay [10] is Gal(b1-4)GlcNAc(b1-2)Man(a1-6)Man(b1-4)GlcNAc(b1-4)GlcNAc. The method in brief: as §1
The target of assay [11] is Gal(b1-4)GlcNAc(b1-2)Man(a1-6)[GlcNAc(b1-2)Man(a1-3)]Man(b1-4)GlcNAc(b1-4)GlcNAc. Summed up: as §1
Assay [12] addresses Gal(b1-4)GlcNAc(b1-2)Man(a1-6)[Man(a1-3)]Man(b1-4)GlcNAc(b1-4)GlcNAc. Summed up: as §1
The target in assay [13] is Gal(b1-4)GlcNAc(b1-2)[Gal(b1-4)GlcNAc(b1-4)]Man(a1-3)[Gal(b1-4)GlcNAc(b1-2)Man(a1-6)]Man(b1-4)GlcNAc(b1-4)GlcNAc. The method in brief:
as §1

Assay [14] deals with Gal(b1-4)GlcNAc(b1-2)[Gal(b1-4)GlcNAc(b1-4)]Man(a1-3)[Gal(b1-4)GlcNAc(b1-2)[Gal(b1-4)GlcNAc(b1-6)]Man(a1-6)]Man(b1-4)GlcNAc(b1-4)GlcNAc. The method in brief: as §1
The target of assay [15] is Gal(b1-4)GlcNAc(b1-2)[Gal(b1-4)GlcNAc(b1-4)]Man(a1-3)[GlcNAc(b1-4)][Gal(b1-4)GlcNAc(b1-2)Man(a1-6)]Man(b1-4)GlcNAc(b1-4)GlcNAc. Summed up:
as §1

In assay [16] the target is Gal(b1-4)GlcNAc(b1-2)[Gal(b1-4)GlcNAc(b1-4)]Man(a1-3)[GlcNAc(b1-4)][Gal(b1-4)GlcNAc(b1-2)[Gal(b1-4)GlcNAc(b1-6)]Man(a1-6)]Man(b1-4)GlcNAc(b1-4)GlcNAc. The method in brief:
as §1

The target of assay [17] is Gal(b1-4)GlcNAc(b1-2)[Gal(b1-4)GlcNAc(b1-6)]Man(a1-6)[Gal(b1-4)GlcNAc(b1-2)Man(a1-3)]Man(b1-4)GlcNAc(b1-4)GlcNAc. The method in brief:
as §1

Assay [18] has as its target Gal(b1-4)GlcNAc(b1-2)[Gal(b1-4)GlcNAc(b1-6)]Man(a1-6)[Gal(b1-4)GlcNAc(b1-2)Man(a1-3)]Man(b1-4)GlcNAc(b1-4)[Fuc(a1-6)]GlcNAc. The method in brief:
as §1

The list shows a part of the results.

B1: Arath Fbox LD (Arabidopsis thaliana) (protein)
chain: EFSVWLEKASGKRCLMLSAMNLSIIWGDNPQYWQWIPIPESRFEKVAKLRDVCWFEIRGRTNTRVLSPRTRYSAYIVFKGVDKCYGFQNVAIEAAVGVVGQEPSRRLICFSEAIRRGRRNVVKPKQREDGWMEIELGEFFNDGGIMDNDEIEMSALETKQLNRKCGLIIQGIEIRPAKILAAASFLEQKLISEEDLNSAVDHHHHHH
As to B1, the “glycan array binding signal (z-score)” value with Gal(b1-4)Glc was -0.358; in the assay with Gal(b1-4)Glc6S, 1.18; with Gal(b1-4)GlcNAc, -0.533; in [1] it was -0.528; with Gal(b1-4)GlcNAc(b1-2)Man, -0.21; in assay [2], -0.442. For the same molecule, the “glycan array binding signal (z-score)” value in [3] was -0.446; in assay [4], -0.393; in assay [5] it was -0.643; in [6] it was -0.517; in assay [7], -0.522; in assay [8] it was 0.368. Further, the “glycan array binding signal (z-score)” value in assay [9] is -0.327; in assay [10], -0.564; in [11] it was -0.389; in [12], -0.2; in [13], -0.356; in assay [14], -0.33. Also, the “glycan array binding signal (z-score)” value in assay [15] is -0.219; in [16], 0.792; in [17] it was -0.064; in assay [18], -0.56.

For the origin of these results see the supplement of paper PMC8728848.
